Reference: the RNAGym collection of RNA variant scans (doi:10.7554/elife.90254)
The source gives no read counts; variants with many changes may rest on few reads.

B1: LINE1-mini (parent)
chain: GGCAGAGCUCAACACAGCGUGGCAAAGUGGCUGUGGCUAGACUGCC

Variants of: B1
Experiment: self-cleavage, relative activity (ratio to wild type); higher = more cleavage; in vitro, sequencing; the parent is a self-cleaving ribozyme

Row | Variant | self-cleavage
1 | C8U C15A A16U C42G G44A | 0.05
2 | A11C U32C C37A | 0.03
3 | U20A G30C A39U | 0.71
4 | A6C G30U C31A A39G | 0.06
5 | G35U G36A G40U | 0.16
6 | G7U C18G U38A G40A | 0.04
7 | C10A A14C G33U C46A | 0.02
8 | A26U G30C G44U | 0.66
9 | A4G C13A C15G A16C G22A A26C | 0.43
10 | G1A A4G G33A | 0.04
11 | C15A G17C G21U C45G | 0.03
12 | U9C A41G C42A | 0.01
13 | C23U U38G U43G | 0
14 | U9G G21C C31U | 0.03
15 | A6G A11U A25C | 0.01
16 | G2C U20C U28G U32C U43A | 0.01
17 | C13A C15U A16U U20C C23G | 0.34
18 | G1U A12G U20A A39C | 0.01
19 | A11G C18A G44C | 0.02
20 | A12C A14G U28C G44A | 0.03
21 | A6C G21A C37G A39G A41G | 0.01
22 | A26U G36U C46A | 0.08
23 | C13U G30C G44A | 0.04
24 | A6C C8A G17C G21U | 0.02
25 | U20C A24C A25G A39C C42G | 0.02
26 | G1C G7A A11G A16C | 0.03

Row | Variant | self-cleavage
27 | G1U A26U G29U C42A | 0.11
28 | G2A A4G C46A | 0.24
29 | G2A G30A A39U | 0.47
30 | G5C G7A A12U U28A | 0.08
31 | G5A G19U G21A | 0.19
32 | C3U C37A G40C | 0.12
33 | A4C A11G G21A G22U | 0.13
34 | G2A G29U G40U | 0.53
35 | C10A G19C U20G G22C A39U | 0.02
36 | G1U C23G C45U | 0.35
37 | A6C C10A A12C A16C | 0
38 | C8G G22C U28C C31U U38A A39C C46A | 0.06
39 | U20G G30A C37G | 0.08
40 | G1C G21U A26G U34A | 0.04
41 | A4U G29U G33A | 0.34
42 | C10G A11U C13A | 0
43 | G35C C37A C45G | 0.33
44 | A16C C18A G35C | 0.06
45 | A12G A16U A25C | 0.02
46 | G7U A16C G21U A25C G33C G36A G40C | 0.01
47 | C3A A4G A12U G19A U34G | 0.09
48 | A4C A25G G29C U32C G35C | 1.29
49 | G22U G33A C37G | 0.03
50 | G17U C18G G44A | 0
51 | C15U G19U U20G G29U | 0.54
52 | C3U A14C G21A G40U C42U | 0.02

Row | Variant | self-cleavage
53 | C31A G40C C42A | 0.01
54 | G27U G29U C37G | 0.03
55 | A16G C31A C46G | 0.04
56 | G17C G22U G29U | 0.12
57 | G17A G29U C31U G44C | 0.04
58 | C10A C18G C37G | 0.02
59 | G30A U34A G35C G36U U38A G40U | 0.08
60 | A12G G19U A25U G29A | 0.01
61 | G7U A16G G21U C23G A25U | 0.03
62 | C10A G35C G36U | 0
63 | G2C C3U G7C | 0.53
64 | G7A A12G G30U U32A | 0.39
65 | G1U U34A G35U | 0.02
66 | A14G G17U G27C | 0
67 | G1C C10A G29C | 0.02
68 | G1C C18A G36A G40U | 0.03
69 | U34C C37U G44U | 0.02
70 | G1A G7U C13G A26C G29C | 0.09
71 | A6U C10G C13A | 0.07
72 | C10G G40A C46U | 0.01
73 | G22A U28G C37A | 0.02
74 | A16G C23G U38G | 0
75 | A12C A14U C15G C31A G35A | 0.03
76 | A6U C23A A25U C45G | 0.4
77 | G7C G21A C23A G30A G36A | 0.29
78 | G1C A6U A14G U32G | 0.03

Row | Variant | self-cleavage
79 | A12G G17U A26C | 0.04
80 | G21C C23U U34G G40C | 0.02
81 | A6C G7C C18A C46A | 0.07
82 | G21C G30C G33U | 0.25
83 | G22A G27A U28C G29U | 0.23
84 | G19C G36A C42A | 0.13
85 | U9C A16C G17A U20A G30U | 0.02
86 | G5C U9A A14U A16U U28C G35C G40U | 0.13
87 | G5U C15U G33A | 0.04
88 | A11C A12U A14C | 0.07
89 | G5A C8U U43A | 0.43
90 | C3G U9C A14U | 0.04
91 | G1C C3A G17A G27C | 0.06
92 | C13G G36C A41C | 0.1
93 | G1C G30A C37U | 0.08
94 | A4C C8A C45A | 0.42
95 | A12U C23G A25C | 0.12
96 | U20C C37A C45A | 0.25
97 | U9G C10A G40C | 0.02
98 | C18G G36U G40A | 0.07
99 | G27A G33U G35A C45U | 0.04
100 | C3G C18G U38G | 0.05
101 | A4G C15A U20A A24C | 0.02
102 | C3G G5U A14G | 0.09
103 | A11U G22A A41G C42G | 0.02
104 | G30A C31U C46A | 0.05

Row | Variant | self-cleavage
105 | G7C A14U U20A C37U | 0.03
106 | A6U A16C U43G G44A | 0.02
107 | A14C G17U C18U | 0.08
108 | G17A G29C G36C C42G | 0.03
109 | G5U A6C A24U G30A | 0.17
110 | C8G C10A G19C G29U C31U | 0.01
111 | G7C G35C C42A | 0.04
112 | G17A U32C U43G | 0.19
113 | C10G G19A A25G G36U | 0.01
114 | A16U A24G G29A | 1.38
115 | C13A G17A G30A | 0.03
116 | G1A A4U U20C U34A G35U | 0.08
117 | A14C G30U G44U | 0.02
118 | A14C A39G U43C | 0.01
119 | C10A G17C C31A | 0.05
120 | A16G U20A G21C U38A | 0.02
121 | C8U G27U G35U | 0.02
122 | C10U G30A C31U C46G | 0.09
123 | A6G G7A C13U C37U | 0.19
124 | C8A G22U C42A | 0.2
125 | A4C C10U A11C G30U A39U | 0.01
126 | G1U U20G G27U | 0.07
127 | A11U C18G G35A C42A | 0.01
